In PMC2172029 one finds apparent FRET efficiency data, which are given here for 2 molecules.

“And” between values parts separate entries of the source, which are not always exact repeats. Equal entries are not always repeated.

The target in assay [1] is human coilin tagged at the COOH terminus with CFP or YFP (human), P38432. Put plainly: FRET or BRET. Conditions: remark: other sources report otherwise. (BRET reads energy transfer from a luciferase to a nearby fluorophore.)
Assay [2] concerns the target human coilin tagged at the NH2 terminus with CFP or YFP (human), P38432. Put plainly: FRET or BRET. Particulars: remark: other sources report otherwise.

B1: human coilin tagged at the COOH terminus with CFP or YFP (natural protein)
chain: MAASETVRLRLQFDYPPPATPHCTAFWLLVDLNRCRVVTDLISLIRQRFGFSSGAFLGLYLEGGLLPPAESARLVRDNDCLRVKLEERGVAENSVVISNGDINLSLRKAKKRAFQLEEGEETEPDCKYSKKHWKSRENNNNNEKVLDLEPKAVTDQTVSKKNKRKNKATCGTVGDDNEEAKRKSPKKKEKCEYKKKAKNPKSPKVQAVKDWANQRCSSPKGSARNSLVKAKRKGSVSVCSKESPSSSSESESCDESISDGPSKVTLEARNSSEKLPTELSKEEPSTKNTTADKLAIKLGFSLTPSKGKTSGTTSSSSDSSAESDDQCLMSSSTPECAAGFLKTVGLFAGRGRPGPGLSSQT[… about 200 residues …]
Take B1: in assay [1], the apparent FRET efficiency is 38.2%.

B2: human coilin tagged at the NH2 terminus with CFP or YFP (natural protein)
chain: MAASETVRLRLQFDYPPPATPHCTAFWLLVDLNRCRVVTDLISLIRQRFGFSSGAFLGLYLEGGLLPPAESARLVRDNDCLRVKLEERGVAENSVVISNGDINLSLRKAKKRAFQLEEGEETEPDCKYSKKHWKSRENNNNNEKVLDLEPKAVTDQTVSKKNKRKNKATCGTVGDDNEEAKRKSPKKKEKCEYKKKAKNPKSPKVQAVKDWANQRCSSPKGSARNSLVKAKRKGSVSVCSKESPSSSSESESCDESISDGPSKVTLEARNSSEKLPTELSKEEPSTKNTTADKLAIKLGFSLTPSKGKTSGTTSSSSDSSAESDDQCLMSSSTPECAAGFLKTVGLFAGRGRPGPGLSSQT[… about 200 residues …]
B2: the apparent FRET efficiency in assay [2] is 39.3% and 41.2%.
